Results from PubChem BioAssay AID1458 (National Center for Advancing Translational Sciences (NCATS), 2008).
In all, about 210,000 compounds went through this assay and about 5,900 (2.8%) were called active. The shares of active, inactive and inconclusive entries below differ from those in the screen. Calls follow the shape of the dose curve; as a rule, active = well fitted activation curve with a large enough effect; inconclusive = small, poorly fitted or top-dose-only effect; inactive = no such curve, though single readings can be large or run the other way. Potencies of inconclusive entries are doubtful fits and often do not repeat.

Experiment: qHTS Assay for Enhancers of SMN2 Splice Variant Expression; also: nearly all actives have a fitted effect of over 55% in size; as to activity change, positive = activation: % of control where 0% means no effect
Conditions: HEK293 SMN2-luciferase splicing reporter, luminescence, 30-36 h; activity change, positive = activation: at 46.1 µM (top of the series)
Procedure, shortened: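 HEK293 cells carry an SMN2 […]–luciferase reporter in which exon 7 inclusion puts luciferase in frame. Cells were plated 10-12 h before compound addition, then incubated 30-36 h at 37C. ONE-Glo luminescence was read; sodium butyrate at 4.5 mM final served as control.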
Potency is read from the fitted curve at half-maximal effect; tags tell the direction and shape of the fitted curve.

| Structure (SMILES) | Potency | activity change, positive = activation |
| --- | --- | --- |
| CCCCc1nnc(NC(=O)C2CCCO2)s1 (configuration not stated) | active: 35.5 µM | – |
| Cc1cc(C)cc(-n2ccnc2SCC(=O)O)c1 | inconclusive: 22.4 µM [activator, partial curve, poor fit] | – |
| CCOC(=O)c1c(CC(C)C)csc1N | inconclusive: 35.5 µM [activator, partial curve, poor fit] | – |
| Cc1nnc(SCC(=O)c2cc(C)n(C3CC3)c2C)s1 | active: 25.1 µM | – |
| COc1ccc(Nc2nc3ccc(OC)cc3s2)cc1 | active: 12.6 µM | – |
| Cc1ccc(C)c(C(=O)n2cnnc2N)c1 | inconclusive: 15.8 µM [activator, partial curve] | – |
| Cn1c(SCC(=O)Nc2cccc(F)c2)nnc1-c1cc2ccccc2o1 | inconclusive: 22.4 µM [activator, partial curve, poor fit] | – |
| O=C(NCc1ccccc1)c1cccc(COc2ccc3c(c2)CCC3)c1 | active: 1.26 µM | – |
| O=C(Nc1sc2c(c1C(=O)O)CCC2)c1cccs1 | inconclusive: 35.5 µM [activator, single point] | – |
| O=c1c2ccccc2nnn1COc1ccc(F)cc1Cl | inconclusive: 22.4 µM [activator, single point] | – |
| COc1cc(C)nc(N2CCCC(C(=O)Nc3cccc(Cl)c3C)C2)n1 (configuration not stated) | inconclusive: 0.316 µM [activator, full curve, poor fit] | – |
| CSc1ccccc1C(=O)Nc1ccc2c(c1)OCO2 | inconclusive: 35.5 µM [activator, single point] | – |
| CC1(C)C=C(c2ccc(O)cc2)CC(C)(C)N1 | inconclusive: 12.6 µM [activator, partial curve, poor fit] | – |
| COc1ccccc1NC(=O)c1ccc(COc2ccc(C)c(C)c2)o1 | inconclusive: 35.5 µM [activator, single point] | – |
| COCCCNC(=O)c1c(NC(=O)c2cccs2)sc2c1CCCC2 | inactive | – |
| COc1ccc(NC(=O)c2ccc(-c3ccc([N+](=O)[O-])cc3)o2)cc1 | inactive | – |
| CC1CCN(CCc2nc3cc(NC(=O)Nc4ccccc4)ccc3n2C)CC1 | inactive | – |
| CN(C)C(=O)c1cn(-c2ccc(Cl)cc2)c(=O)c2ccccc12 | inconclusive: 35.5 µM [activator, single point] | – |
| Cc1noc(/C=C/NCc2cccnc2)c1S(=O)(=O)N(C)CC(=O)N1CCc2ccccc21 | inactive | – |
| O=C(Nc1ccc2ccccc2c1)c1cnccn1 | active: 11.2 µM | – |
| Cc1ccc(NC(=S)N/N=C/c2c(C)[nH]c3ccccc23)cc1 | inactive | – |
| CCOc1cc(NC(=S)NCC2CCCO2)c(OCC)cc1NC(=O)c1ccc(OC)cc1 (configuration not stated) | inactive | – |
| CN(C)CCCN1c2ccccc2C(C)(C)c2ccccc21 | – | inactive: -23% [at 9.22 µM] |
| COc1ccccc1N=c1oc2cc(O)ccc2cc1C(=O)NCC1CCCO1 (configuration not stated) | inactive | – |
| CN(C)CC(=O)N1c2ccccc2CCc2ccc(NC(=O)c3ccc(N)cc3)cc21 | inconclusive: 11.2 µM [activator, single point] | – |
| CCOC(=O)Cc1csc(Nc2ccc(Cl)cc2)n1 | inconclusive: 5.01 µM [activator, partial curve, poor fit] | – |

| Structure (SMILES) | Potency | activity change, positive = activation |
| --- | --- | --- |
| C=C1CCC(=O)C(C)CCC2C1CC2(C)C (configuration not stated) | inactive | – |
| C=CCn1c(SCC(=O)Nc2ccc(C(=O)OCC)cc2)nnc1-c1cccs1 | inconclusive: 0.0398 µM [activator, full curve, poor fit] | – |
| CC(=O)c1cccc(N/C=C\C(=O)c2ccc(C)cc2)c1 | active: 6.31 µM | – |
| COc1ccccc1NS(=O)(=O)c1cc(NC(=O)c2ccncc2)ccc1N1CCCC1 | inactive | – |
| CCN(CC)S(=O)(=O)c1csc(C(=O)Nc2ccccn2)c1 | inconclusive: 0.0035 µM [activator, full curve, poor fit] | – |
| CCSc1nnc(NC(=O)c2ccccc2)s1 | active: 11.2 µM | – |
| Cc1nc(SCc2ccccc2)nc2c1CCC2 | active: 11.2 µM | – |
| CCCCNC(=S)NNC(=O)c1csc(C)c1C | inconclusive: 12.6 µM [activator, partial curve, poor fit] | – |
| COc1cc2c(=O)n(Cc3ccco3)c(=O)n(CC(=O)c3ccc(Br)cc3)c2cc1OC | inconclusive: 31.6 µM [activator, single point] | – |
| CC1CCC(NC(=O)c2ccc3c(c2)N(Cc2ccccc2F)C(=O)c2ccccc2S3(=O)=O)CC1 (configuration not stated) | inactive | – |
| COc1ccc(NC(=O)C2CC(=O)OC23CCOC(C)(C)C3)cc1 (configuration not stated) | inactive | – |
| CCCC(C)C(=O)OCC(=O)Nc1c(Br)cc(C)cc1Br (configuration not stated) | inconclusive: 1.12 µM [activator, full curve, poor fit] | – |
| CC1CCc2c(sc3nnn(Cc4ccccc4Cl)c(=O)c23)C1 (configuration not stated) | inactive | – |
| O=C1c2ccccc2CCC1CNCCc1ccc(O)cc1 (configuration not stated) | inactive | – |
| Cc1cc(C(=O)N/N=C2\CCCc3ccccc32)c(C)o1 | inconclusive: 14.1 µM [activator, single point] | – |
| COc1cccc(Oc2ccc(N)cc2)c1 | inconclusive: 14.1 µM [activator, partial curve] | – |
| COc1ccc(N(CC(=O)N2CCCCC2)S(=O)(=O)c2ccc(OC)c(OC)c2)cc1 | inactive | – |
| CCCc1ccc(OCc2ccc(C(=O)Nc3ccccc3C(=O)OC)o2)cc1 | inconclusive: 35.5 µM [activator, single point] | – |
| N#Cc1ccc(OCc2nnc(SCC(=O)c3ccccc3)n2-c2ccccc2)cc1 | inactive | – |
| COc1ccc2c(c1)-c1c(sn(-c3ccccc3)c1=S)C(C)(C)N2 | inconclusive: 1.12 µM [activator, full curve, poor fit] | – |
| COc1cc(C2CC(=O)c3cnc(N4CCN(Cc5ccccc5)CC4)nc3C2)cc(OC)c1OC (configuration not stated) | inactive | – |
| CCOC(=O)N1CCN(C(=O)CCc2c(C)nc3c(c(C)nn3-c3ccc(C)c(C)c3)c2C)CC1 | inactive | – |
| Oc1ccccc1C1=NCCNC(C(F)(F)C(F)F)=C1 | inactive | – |
| O=C(Cn1ccc([N+](=O)[O-])n1)N1CCCCCC1 | inactive | – |
| CC(C)(C)C(=O)Nc1nc2c(s1)CN(Cc1ccccc1)CC2 | inconclusive: 12.6 µM [activator, partial curve] | – |
| Cc1sc(NC(=O)CCCC(=O)O)c(C#N)c1C | inconclusive: 35.5 µM [activator, partial curve, poor fit] | – |

| Structure (SMILES) | Potency | activity change, positive = activation |
| --- | --- | --- |
| CCOC(=O)c1c(NC(=O)CCN2CCOCC2)sc2c1CC(C)(C)OC2 | inconclusive: 0.447 µM [activator, partial curve, poor fit] | – |
| Cn1c(O)c(C=Nc2ccc(Br)cc2)sc1=O | active: 2.82 µM | – |
| CC(=O)NCCCc1nc2ccccc2n1Cc1ccccc1C | inconclusive: 0.0355 µM [activator, full curve, poor fit] | – |
| O=C(C(=O)N1CCCc2ccccc21)N1CCCc2ccccc21 | inconclusive: 5.01 µM [activator, single point] | – |
| COc1ccc(-c2cc(C(=O)Nc3c(C)nn(Cc4ccccc4Cl)c3C)no2)cc1OC | inactive | – |
| COc1ccc(/C=C/C(=O)c2cc3c(cc2N)OCO3)cc1 | inconclusive: 35.5 µM [activator, single point] | – |
| N=c1c2c(-c3ccccc3)c(-c3ccccc3)oc2ncn1CCCN1CCOCC1 | inconclusive: 1.12 µM [activator, full curve, poor fit] | – |
| Cc1ccc2c(c1)NCC(C(=O)NC1CCC(C)CC1)O2 (configuration not stated) | inconclusive: 11.2 µM [activator, partial curve, poor fit] | – |
| C=C1C(=O)OC2CC1C(OC(C)=O)CC(C)=CCCC(C)=CCC[C@@]2(C)O (some centres not stated) | inactive | – |
| Cc1nn(-c2ccccc2)c(C)c1/C=N/n1c(-c2ccncc2)n[nH]c1=S | inconclusive: 12.6 µM [activator, single point] | – |
| CCc1nnc(SCC(=O)Nc2ccc3c(c2)OCO3)o1 | inconclusive: 0.0398 µM [activator, full curve] | – |
| CCn1c(SCc2nc3ccccc3[nH]2)nnc1-c1ccncc1 | inconclusive: 0.0126 µM [activator, full curve, poor fit] | – |
| COCC(C)n1c(C)cc(C(=O)CSc2nc3ccccc3c(=O)[nH]2)c1C (configuration not stated) | inactive | – |
| COc1ccc2c(c1)CC/C(=C\C=C\c1ccccc1)C2=O | inconclusive: 17.8 µM [activator, single point] | – |
| Cc1ccc(C(=O)N(c2ccc(C)cc2)S(=O)(=O)c2ccc(Cl)cc2)cc1 | inactive | – |
| Brc1cc2c(cc1/C=N/Nc1nc(N3CCOCC3)nc(N3CCOCC3)n1)OCO2 | inconclusive: 35.5 µM [activator, single point] | – |
| O=C(O)COc1ccc(S(=O)(=O)NCCc2ccccc2)cc1 | inactive | – |
| O=C(Cc1noc2ccccc12)Nc1ccc(Cl)cc1 | inconclusive: 10 µM [activator, partial curve] | – |
| CSc1cccc(NC(=S)N(CCCN2CCCC(C)C2)Cc2cccs2)c1 (configuration not stated) | inactive | – |
| CC(C(=O)NCc1ccccc1)N1C(=O)C2CC=C(Cl)CC2C1=O (configuration not stated) | inconclusive: 6.31 µM [activator, partial curve, poor fit] | – |
| c1ccc(-c2noc(COc3ccc4c(c3)OCO4)n2)cc1 | active: 14.1 µM | – |
| CCOc1ccc(CCNC(=O)Cn2cccc2C(=O)c2ccccc2C)cc1OCC | – | inactive: -8.67% [at 1.84 µM] |
| CCC1=C(c2ccc(C)cc2)S(=O)(=O)N=C1N1CCC(C(=O)NCCc2ccc(Cl)cc2)CC1 | inactive | – |
| Oc1ccc(Br)cc1-c1nc2cnccn2c1NC1CCCC1 | inconclusive: 0.0398 µM [activator, full curve, poor fit] | – |
| COc1ccc(C(=N/O)/C(=N/O)c2ccc(OC)cc2)cc1 | inconclusive: 15.8 µM [activator, partial curve, poor fit] | – |
